Source: patent US20230272055A1, “ANTI-MUTANT CALRETICULIN (CALR) ANTIBODIES AND USES THEREOF” (Incyte Corporation, priority 2021, published 2023)
Substitutions are numbered along the chain they refer to.

B1: 181 (antibody)
heavy: EVQLVQSGAEVKKPGASVKVSCKVSGYTLTELSMQWVRQAPGKGLEWMGGFDPDAGETMYAEKFQGRLTVTEDTSTDTVYMELRSLTSEDTALYFCATSPGYDFFDYWGQGTLVTVSSASTKGPSVFPLAPSSKSTSGGTAALGCLVKDYFPEPVTVSWNSGALTSGVHTFPAVLQSSGLYSLSSVVTVPSSSLGTQTYICNVNHKPSNTKVDKRV[omitted - human IgG1 Fc with changes]
light: SYVLTQPPSVSVAPGQTARITCGGSDIGDEIVHWYQQKPGQAPVLVVYDDSDRPSGIPERFSGSNSGNTATLTISRVEAGDEADYYCQVWDSSSDHLIFGGGTKLTVLGQPKAAPSVTLFPPSSEELQANKATLVCLISDFYPGAVTVAWKADSSPVKAGVETTTPSKQSNNKYAASSYLSLTPEQWKSHRSYSCQVTHEGSTVEKTVAPTECS
B2: 136 (antibody)
heavy: EVQLVQSGAEVKKPGASVKVSCKVSGYTLTELSMQWVRQAPGKGLEWMGGFDPDSGETMYAEKFQGRLTVTEDTSTDTVYMELRSLTSEDTALYFCATSPGYDFFDYWGQGTLVTVSSASTKGPSVFPLAPSSKSTSGGTAALGCLVKDYFPEPVTVSWNSGALTSGVHTFPAVLQSSGLYSLSSVVTVPSSSLGTQTYICNVNHKPSNTKVDKRV[omitted - human IgG1 Fc with changes]
light: B1 light with Q16K, S25D, D26N, D29S, E30K, I31S, S94N, H96L
B3: 125 (antibody)
heavy: EVQLVQSGAEVKKPGASVKVSCKVSGYTLTELSMQWVRQAPGKGLEWMGGFDPDAGETMYAEKFQGRLTVTEDTSTDTVYMELRSLTSEDTALYFCATSPGYDFFDYWGQGTLVTVSSASTKGPSVFPLAPSSKSTSGGTAALGCLVKDYFPEPVTVSWNSGALTSGVHTFPAVLQSSGLYSLSSVVTVPSSSLGTQTYICNVNHKPSNTKVDKRV[omitted - human IgG1 Fc with changes]
light: B1 light with V3E, Q16K, S25D, D26N, D29S, E30K, I31S, S75N, S94N, H96L
B4: 82 (antibody)
heavy: EVQLVQSGAEVKKPGASVKVSCKVSGYTLTELSMQWVRQAPGKGLEWMGGFDPDSGETMYAEKFQGRLTVTEDTSTDTVYMELSSLRSEDTAVYFCATSPGYDFFDYWGQGTLVTVSSASTKGPSVFPLAPSSKSTSGGTAALGCLVKDYFPEPVTVSWNSGALTSGVHTFPAVLQSSGLYSLSSVVTVPSSSLGTQTYICNVNHKPSNTKVDKRV[omitted - human IgG1 Fc with changes]
light: B1 light with Q16K, S25N, D26N, D29S, E30K, I31S, S94N, H96L
B5: 131 (antibody)
heavy: EVQLVQSGAEVKKPGASVKVSCKVSGYTLTELSMQWVRQAPGKGLEWMGGFDPDSGETMYAEKFQGRLTVTEDTSTDTVYMELSSLRSEDTAVYFCATSPGYDFFDYWGQGTLVTVSSASTKGPSVFPLAPSSKSTSGGTAALGCLVKDYFPEPVTVSWNSGALTSGVHTFPAVLQSSGLYSLSSVVTVPSSSLGTQTYICNVNHKPSNTKVDKRV[omitted - human IgG1 Fc with changes]
light: B1 light with V3E, Q16K, S25D, D26N, D29S, E30K, I31S, S75N, S94N, H96L
B6: 140 (antibody)
heavy: EVQLVQSGAEVKKPGASVKVSCKVSGYTLTELSMQWVRQAPGKGLEWMGGFDPDAGETMYAEKFQGRLTVTEDTSTDTVYMELSSLRSEDTAVYFCATSPGYDFFDYWGQGTLVTVSSASTKGPSVFPLAPSSKSTSGGTAALGCLVKDYFPEPVTVSWNSGALTSGVHTFPAVLQSSGLYSLSSVVTVPSSSLGTQTYICNVNHKPSNTKVDKRV[omitted - human IgG1 Fc with changes]
light: B1 light with Q16K, S25D, D26N, D29S, E30K, I31S, S94N, H96L
B7: 139 (antibody)
heavy: EVQLVQSGAEVKKPGASVKVSCKVSGYTLTELSMQWVRQAPGKGLEWMGGFDPDDGETMYAEKFQGRLTVTEDTSTDTVYMELSSLRSEDTAVYFCATSPGYDFFDYWGQGTLVTVSSASTKGPSVFPLAPSSKSTSGGTAALGCLVKDYFPEPVTVSWNSGALTSGVHTFPAVLQSSGLYSLSSVVTVPSSSLGTQTYICNVNHKPSNTKVDKRV[omitted - human IgG1 Fc with changes]
light: B1 light with Q16K, S25D, D26N, D29S, E30K, I31S, S94N, H96L
B8: 130 (antibody)
heavy: EVQLVQSGAEVKKPGASVKVSCKVSGYTLTELSMQWVRQAPGKGLEWMGGFDPDAGETMYAEKFQGRLTVTEDTSTDTVYMELSSLRSEDTAVYFCATSPGYDFFDYWGQGTLVTVSSASTKGPSVFPLAPSSKSTSGGTAALGCLVKDYFPEPVTVSWNSGALTSGVHTFPAVLQSSGLYSLSSVVTVPSSSLGTQTYICNVNHKPSNTKVDKRV[omitted - human IgG1 Fc with changes]
light: B1 light with V3E, Q16K, S25D, D26N, D29S, E30K, I31S, S75N, S94N, H96L
B9: 141 (antibody)
heavy: EVQLVQSGAEVKKPGASVKVSCKVSGYTLTELSMQWVRQAPGKGLEWMGGFDPDSGETMYAEKFQGRLTVTEDTSTDTVYMELSSLRSEDTAVYFCATSPGYDFFDYWGQGTLVTVSSASTKGPSVFPLAPSSKSTSGGTAALGCLVKDYFPEPVTVSWNSGALTSGVHTFPAVLQSSGLYSLSSVVTVPSSSLGTQTYICNVNHKPSNTKVDKRV[omitted - human IgG1 Fc with changes]
light: B1 light with Q16K, S25D, D26N, D29S, E30K, I31S, S94N, H96L
B10: 67 (antibody)
heavy: EVQLVQSGAEVKKPGASVKVSCKVSGYTLTELSMQWVRQAPGKGLEWMGGFDPDSGETMYAEKFQGRLTVTEDTSTDTVYMELRSLTSEDTALYFCATSPGYDFFDYWGQGTLVTVSSASTKGPSVFPLAPSSKSTSGGTAALGCLVKDYFPEPVTVSWNSGALTSGVHTFPAVLQSSGLYSLSSVVTVPSSSLGTQTYICNVNHKPSNTKVDKRV[omitted - human IgG1 Fc with changes]
light: SYVLTQPPSVSVAPGKTARITCTGTSSDVGGYNYVSWYQQKPGQAPVLVVYEVSNRPSGIPERFSGSNSGNTATLTISRVEAGDEADYYCQVWDSSNDLLIFGGGTKLTVLGQPKAAPSVTLFPPSSEELQANKATLVCLISDFYPGAVTVAWKADSSPVKAGVETTTPSKQSNNKYAASSYLSLTPEQWKSHRSYSCQVTHEGSTVEKTVAPTECS
B11: 135 (antibody)
heavy: EVQLVQSGAEVKKPGASVKVSCKVSGYTLTELSMQWVRQAPGKGLEWMGGFDPDAGETMYAEKFQGRLTVTEDTSTDTVYMELRSLTSEDTALYFCATSPGYDFFDYWGQGTLVTVSSASTKGPSVFPLAPSSKSTSGGTAALGCLVKDYFPEPVTVSWNSGALTSGVHTFPAVLQSSGLYSLSSVVTVPSSSLGTQTYICNVNHKPSNTKVDKRV[omitted - human IgG1 Fc with changes]
light: B1 light with Q16K, S25D, D26N, D29S, E30K, I31S, S94N, H96L
B12: 73 (antibody)
heavy: EVQLVQSGAEVKKPGASVKVSCKVSGYTLTELSMQWVRQAPGKGLEWMGGFDPDEGETMYAEKFQGRLTVTEDTSTDTVYMELSSLRSEDTAVYFCATSPGYDFFDYWGQGTLVTVSSASTKGPSVFPLAPSSKSTSGGTAALGCLVKDYFPEPVTVSWNSGALTSGVHTFPAVLQSSGLYSLSSVVTVPSSSLGTQTYICNVNHKPSNTKVDKRV[omitted - human IgG1 Fc with changes]
light: B10 light
B13: 81 (antibody)
heavy: EVQLVQSGAEVKKPGASVKVSCKVSGYTLTELSMQWVRQAPGKGLEWMGGFDPDAGETMYAEKFQGRLTVTEDTSTDTVYMELSSLRSEDTAVYFCATSPGYDFFDYWGQGTLVTVSSASTKGPSVFPLAPSSKSTSGGTAALGCLVKDYFPEPVTVSWNSGALTSGVHTFPAVLQSSGLYSLSSVVTVPSSSLGTQTYICNVNHKPSNTKVDKRV[omitted - human IgG1 Fc with changes]
light: B1 light with Q16K, S25N, D26N, D29S, E30K, I31S, S94N, H96L
B14: 80 (antibody)
heavy: EVQLVQSGAEVKKPGASVKVSCKVSGYTLTELSMQWVRQAPGKGLEWMGGFDPDDGETMYAEKFQGRLTVTEDTSTDTVYMELSSLRSEDTAVYFCATSPGYDFFDYWGQGTLVTVSSASTKGPSVFPLAPSSKSTSGGTAALGCLVKDYFPEPVTVSWNSGALTSGVHTFPAVLQSSGLYSLSSVVTVPSSSLGTQTYICNVNHKPSNTKVDKRV[omitted - human IgG1 Fc with changes]
light: B1 light with Q16K, S25N, D26N, D29S, E30K, I31S, S94N, H96L
B15: 176 (antibody)
heavy: EVQLVQSGAEVKKPGASVKVSCKVSGYTLTELSMQWVRQAPGKGLEWMGGFDPDAGETMYAEKFQGRLTVTEDTSTDTVYMELSSLRSEDTAVYFCATSPGYDFFDYWGQGTLVTVSSASTKGPSVFPLAPSSKSTSGGTAALGCLVKDYFPEPVTVSWNSGALTSGVHTFPAVLQSSGLYSLSSVVTVPSSSLGTQTYICNVNHKPSNTKVDKRV[omitted - human IgG1 Fc with changes]
light: B1 light with V77A, E78Q
B16: 77 (antibody)
heavy: EVQLVQSGAEVKKPGASVKVSCKVSGYTLTELSMQWVRQAPGKGLEWMGGFDPDSGETMYAEKFQGRLTVTEDTSTDTVYMELRSLTSEDTALYFCATSPGYDFFDYWGQGTLVTVSSASTKGPSVFPLAPSSKSTSGGTAALGCLVKDYFPEPVTVSWNSGALTSGVHTFPAVLQSSGLYSLSSVVTVPSSSLGTQTYICNVNHKPSNTKVDKRV[omitted - human IgG1 Fc with changes]
light: B1 light with Q16K, S25N, D26N, D29S, E30K, I31S, S94N, H96L
B17: 185 (antibody)
heavy: EVQLVQSGAEVKKPGASVKVSCKVSGYTLTELSMQWVRQAPGKGLEWMGGFDPDDGETMYAEKFQGRLTVTEDTSTDTVYMELSSLRSEDTAVYFCATSPGYDFFDYWGQGTLVTVSSASTKGPSVFPLAPSSKSTSGGTAALGCLVKDYFPEPVTVSWNSGALTSGVHTFPAVLQSSGLYSLSSVVTVPSSSLGTQTYICNVNHKPSNTKVDKRV[omitted - human IgG1 Fc with changes]
light: B1 light
B18: 76 (antibody)
heavy: EVQLVQSGAEVKKPGASVKVSCKVSGYTLTELSMQWVRQAPGKGLEWMGGFDPDAGETMYAEKFQGRLTVTEDTSTDTVYMELRSLTSEDTALYFCATSPGYDFFDYWGQGTLVTVSSASTKGPSVFPLAPSSKSTSGGTAALGCLVKDYFPEPVTVSWNSGALTSGVHTFPAVLQSSGLYSLSSVVTVPSSSLGTQTYICNVNHKPSNTKVDKRV[omitted - human IgG1 Fc with changes]
light: B1 light with Q16K, S25N, D26N, D29S, E30K, I31S, S94N, H96L
B19: 71 (antibody)
heavy: EVQLVQSGAEVKKPGASVKVSCKVSGYTLTELSMQWVRQAPGKGLEWMGGFDPDAGETMYAEKFQGRLTVTEDTSTDTVYMELSSLRSEDTAVYFCATSPGYDFFDYWGQGTLVTVSSASTKGPSVFPLAPSSKSTSGGTAALGCLVKDYFPEPVTVSWNSGALTSGVHTFPAVLQSSGLYSLSSVVTVPSSSLGTQTYICNVNHKPSNTKVDKRV[omitted - human IgG1 Fc with changes]
light: B10 light
B20: 59 (antibody)
heavy: EVQLVQSGAEVKKPGASVKVSCKVSGYTLTELSMQWVRQAPGKGLEWMGGFDPDDAETMYAEKFQGRLTVTEDTSTDTVYMELRSLTSEDTALYFCATSPGYDFFDYWGQGTLVTVSSASTKGPSVFPLAPSSKSTSGGTAALGCLVKDYFPEPVTVSWNSGALTSGVHTFPAVLQSSGLYSLSSVVTVPSSSLGTQTYICNVNHKPSNTKVDKRV[omitted - human IgG1 Fc with changes]
light: QSALTQPASVSGSPGQSITISCTGTSSDVGGYNYVSWYQQHPGKAPKLMIYEVSNRPSGVSNRFSGSNSGNTATLTINRVEAGDEADYYCQVWDSSNDLLIFGGGTKLTVLGQPKAAPSVTLFPPSSEELQANKATLVCLISDFYPGAVTVAWKADSSPVKAGVETTTPSKQSNNKYAASSYLSLTPEQWKSHRSYSCQVTHEGSTVEKTVAPTECS

The molecules below were run against T1, recombinant MBP-mutCALR Type 1 fusion protein (Homo sapiens, UniProt P27797, DEL40-40) (assay: Biacore SPR binding kinetics, Experiment 2 (parental and variant antibodies)). Details: Biacore 8K, 25° C., 1:1 binding model.
T1 construct: His6 (N); purchased Cepter (cepterbiopartners.com), custom made

Molecule | ka [M⁻¹ s⁻¹] | kd [s⁻¹]
B1 | 1e+07 | 0.0209
B2 | 756000 | 0.00507
B3 | 3.23e+06 | 0.0154
B4 | 762000 | 0.00475
B5 | 996000 | 0.00481
B6 | 763000 | 0.00541
B7 | 987000 | 0.000953
B8 | 1.08e+06 | 0.00509
B9 | 4.18e+06 | 0.0187
B10 | 3.05e+06 | 0.0102
B11 | 991000 | 0.00512
B12 | 7.18e+06 | 0.00546
B13 | 746000 | 0.00494
B14 | 3.89e+06 | 0.00248
B15 | 994000 | 0.00278
B16 | 3.13e+06 | 0.0175
B17 | 5.32e+06 | 0.000911
B18 | 3.16e+06 | 0.0155
B19 | 4.63e+06 | 0.0107
B20 | 945000 | 0.00136
